Key:
Magnaporthe grisea = type: in vivo; settings: 250 ppm spray, preventive; control value class
Phytophthora infestans = type: in vivo; settings: 250 ppm spray (2.5 ml/pot), preventive; 5-10 days after inoculation; control value class
[1] = system: Colletotrichum orbiculare; settings: 250 ppm spray (2.5 ml/pot), preventive; 6-10 days after inoculation; control value class

Row | Compound | Test A control value (blast on rice) (Magnaporthe grisea) | Test F control value (late blight on tomato) (Phytophthora infestans) | Test H control value (anthracnose on cucumber) [1]
1 | CCn1c(-c2c(F)cccc2F)c(-c2cccc(OC(F)(F)F)c2)ccc1=O [Compound 217] | H (H shows more than 50% of control values) | L (L shows 50% or less of control values) | L (L shows 50% or less of control values)
2 | CCn1c(-c2c(F)cccc2F)c(-c2cccc(OC(F)(F)F)c2)cc(Cl)c1=O [Compound 218] | H (H shows more than 50% of control values) | L (L shows 50% or less of control values) | L (L shows 50% or less of control values)
3 | CCn1c(-c2c(F)cccc2F)c(-c2cccc(C)c2)ccc1=O [Compound 219] | H (H shows more than 50% of control values) | L (L shows 50% or less of control values) | L (L shows 50% or less of control values)
4 | CCn1c(-c2c(F)cccc2F)c(-c2cccc(C)c2)cc(Cl)c1=O [Compound 220] | H (H shows more than 50% of control values) | L (L shows 50% or less of control values) | L (L shows 50% or less of control values)
5 | CCn1c(-c2c(F)cccc2F)c(-c2cc(OCC3CC3)ccc2Cl)cc(Cl)c1=O [Compound 221] | H (H shows more than 50% of control values) | L (L shows 50% or less of control values) | H (H shows more than 50% of control values)
6 | COCOc1ccc(Cl)c(-c2cc(Cl)c(=O)n(CC(F)F)c2-c2c(F)cccc2F)c1 [Compound 222] | H (H shows more than 50% of control values) | L (L shows 50% or less of control values) | H (H shows more than 50% of control values)
7 | CCOc1ccc(Cl)c(-c2cc(Cl)c(=O)n(CC(F)F)c2-c2c(F)cccc2F)c1 [Compound 223] | H (H shows more than 50% of control values) | L (L shows 50% or less of control values) | H (H shows more than 50% of control values)
8 | CCn1c(-c2c(F)cncc2F)c(-c2cc(OC)cc(OC)c2Cl)ccc1=O [Compound 224] | H (H shows more than 50% of control values) | H (H shows more than 50% of control values) | H (H shows more than 50% of control values)
9 | CCN1C(=O)CCC(c2cc(OC)cc(OC)c2)=C1c1ccccc1F [Compound 225] | H (H shows more than 50% of control values) | L (L shows 50% or less of control values) | L (L shows 50% or less of control values)
10 | COc1cc(OC)cc(C2=C(c3ccccc3F)N(C)C(=O)CC2)c1 [Compound 226] | H (H shows more than 50% of control values) | H (H shows more than 50% of control values) | H (H shows more than 50% of control values)
11 | CCn1c(-c2ccccc2F)c(-c2cc(OC)cc(OC)c2)ccc1=O [Compound 230] | H (H shows more than 50% of control values) | H (H shows more than 50% of control values) | H (H shows more than 50% of control values)
12 | CCn1c(-c2ccccc2F)c(-c2cc(OC)cc(OC)c2Br)ccc1=O [Compound 231] | H (H shows more than 50% of control values) | H (H shows more than 50% of control values) | H (H shows more than 50% of control values)
13 | CCn1c(-c2ccccc2F)c(-c2cc(OC)cc(OC)c2Cl)ccc1=O [Compound 232] | H (H shows more than 50% of control values) | L (L shows 50% or less of control values) | H (H shows more than 50% of control values)
14 | COc1cc(OC)c(Cl)c(-c2ccc(=O)n(C)c2-c2ccccc2F)c1Cl [Compound 233] | H (H shows more than 50% of control values) | H (H shows more than 50% of control values) | L (L shows 50% or less of control values)
15 | CCn1c(-c2c(F)cccc2F)c(-c2cc(O)ccc2Cl)ccc1=O [Compound 234, 5-(2-chloro-5-hydroxyphenyl)-6-(2,6-difluorophenyl)-1-ethylpyridine-2(1H)-one] | H (H shows more than 50% of control values) | L (L shows 50% or less of control values) | H (H shows more than 50% of control values)
16 | Cn1c(-c2c(F)cccc2F)c(-c2cc(O)ccc2Cl)ccc1=O [Compound 235] | H (H shows more than 50% of control values) | L (L shows 50% or less of control values) | L (L shows 50% or less of control values)
17 | Cn1c(-c2c(F)cccc2F)c(-c2cc(OCC#N)ccc2Cl)ccc1=O [Compound 236] | H (H shows more than 50% of control values) | L (L shows 50% or less of control values) | H (H shows more than 50% of control values)
18 | CCOc1ccc(Cl)c(-c2ccc(=O)n(C)c2-c2c(F)cccc2F)c1 [Compound 237] | H (H shows more than 50% of control values) | L (L shows 50% or less of control values) | H (H shows more than 50% of control values)
19 | Cn1c(-c2c(F)cccc2F)c(-c2cc(OCC3CC3)ccc2Cl)ccc1=O [Compound 238] | H (H shows more than 50% of control values) | L (L shows 50% or less of control values) | H (H shows more than 50% of control values)
20 | COCOc1ccc(Cl)c(-c2ccc(=O)n(C)c2-c2c(F)cccc2F)c1 [Compound 239] | H (H shows more than 50% of control values) | H (H shows more than 50% of control values) | H (H shows more than 50% of control values)
21 | COCCOc1ccc(Cl)c(-c2ccc(=O)n(C)c2-c2c(F)cccc2F)c1 [Compound 240] | H (H shows more than 50% of control values) | L (L shows 50% or less of control values) | H (H shows more than 50% of control values)
22 | CCCOc1ccc(Cl)c(-c2ccc(=O)n(C)c2-c2c(F)cccc2F)c1 [Compound 241] | H (H shows more than 50% of control values) | L (L shows 50% or less of control values) | H (H shows more than 50% of control values)
23 | CCCOc1ccc(Cl)c(-c2ccc(=O)n(CC)c2-c2c(F)cccc2F)c1 [Compound 242] | H (H shows more than 50% of control values) | L (L shows 50% or less of control values) | H (H shows more than 50% of control values)
24 | C#CCOc1ccc(Cl)c(-c2ccc(=O)n(C)c2-c2c(F)cccc2F)c1 [Compound 243] | H (H shows more than 50% of control values) | L (L shows 50% or less of control values) | H (H shows more than 50% of control values)
25 | C#CCOc1ccc(Cl)c(-c2ccc(=O)n(CC)c2-c2c(F)cccc2F)c1 [Compound 244] | H (H shows more than 50% of control values) | L (L shows 50% or less of control values) | H (H shows more than 50% of control values)
26 | CCn1c(-c2c(F)cccc2F)c(-c2cc(OCOCC[Si](C)(C)C)ccc2Cl)ccc1=O [Compound 245] | L (L shows 50% or less of control values) | L (L shows 50% or less of control values) | L (L shows 50% or less of control values)
27 | Cn1c(-c2c(F)cccc2F)c(-c2cc(OCOCC[Si](C)(C)C)ccc2Cl)ccc1=O [Compound 246] | L (L shows 50% or less of control values) | L (L shows 50% or less of control values) | L (L shows 50% or less of control values)
28 | CCOc1cc(F)c(-c2c(-c3cc(OC)cc(OC)c3Cl)ccc(=O)n2C)c(F)c1 [Compound 247] | H (H shows more than 50% of control values) | H (H shows more than 50% of control values) | H (H shows more than 50% of control values)
29 | COc1cc(OC)c(Cl)c(-c2ccc(=O)n(C)c2-c2c(F)cc(OC(C)(C)C)cc2F)c1 [Compound 248] | H (H shows more than 50% of control values) | L (L shows 50% or less of control values) | L (L shows 50% or less of control values)
30 | COc1cc(OC)c(Cl)c(-c2ccc(=O)n(C)c2-c2c(F)cc(O)cc2F)c1 [Compound 249] | L (L shows 50% or less of control values) | L (L shows 50% or less of control values) | H (H shows more than 50% of control values)
